Results as given in US20230021880A1, “Cladribine regimen for treating progressive forms of Multiple Sclerosis” (Merck Patent GmbH, priority 2017, published 2023).

Legend:
[1] = molecular target: CYP2B6 (Homo sapiens, UniProt P20813)
[2] = clinical; conditions: human, in vivo
[3] = molecular target: CYP1A2 (Homo sapiens, UniProt P05177)
[4] = clinical; conditions: human, cerebrospinal fluid / plasma
[5] = Cladribine pharmacokinetics following oral administration
[6] = tested on: patients with RRMS; experiment: ONWARD study: Cladribine tablets 3.5 mg/kg added on to IFN-β, RRMS patients; assay type: in vivo, human
Excerpt: (§1) A supportive study in patients treated with Cladribine as an add-on to interferon-beta vs. placebo+interferon-beta also included a limited number of patients with secondary progressive MS (26 patients). […] There was no difference in annualized relapse rate between patients with relapsing-remitting MS and patients with secondary progressive MS with relapses.
(§2) Patients aged 18-65 years were eligible to enter the ONWARD study if they fulfilled the following criteria. • a diagnosis of RRMS or SPMS with relapses (2005 McDonald criteria) • treatment with IFN-β for ≥48 consecutive weeks before screening, with ≥1 MS relapse during that period • clinical stability (other than relapses) during the 28 days before screening • an Expanded Disability Status Scale. (EDSS) score of 1.0-5.5 • normal hematological parameters within 28 days of baseline (Day 1 of randomization), defined as: platelets, 140-450×10^3/μL; absolute neutrophil count, 2.03-8.36×10^3/μL, absolute lymphocyte count, 1.02-3.36×10^3/μL; white blood cell count, 4.1-123×10^3/μL; haemoglobin, 11.6-16.2 g/dL • Switching from one IFN-β therapy to another was permitted in the 48 weeks before screening if the patient had been on a stable regimen of the current IFN-β≥3 months prior to screening. • Patients were excluded if they bad an infectious or immune-compromising disease, had been previously treated with an immunosuppressive or cytotoxic therapy, or if they were pregnant, breastfeeding or refused to use contraception during the study. • In the study, a dose of Cladribine tablets of 3.5 mg/kg, added to existing IFN-β therapy, were applied. • All analyses were post-hoc and not pre-specified, no multiplicity adjustments were done to the resulting p values. All comparisons where the p value was less than 0.05 by statistical testing should be regarded as nominally significant.
(§3) The ONWARD study confirmed the safety and tolerability of Cladribine tablets (3.5 mg/kg) administered as an add on to interferon-β (IFN-β) therapy as a primary endpoint in patients who experienced at least, one relapse on IFN-β. […] The inclusion of patients with SPMS in ONWARD provided an opportunity to confirm the efficacy of treatment with Cladribine tablets 3.5 mg/kg vs placebo added on to IFN-β in these patients. The objective was to confirm the effect of Cladribine tablets 3.5 mg/kg in patterns with SPMS or RRMS in the ONWARD study.

[7] = molecular target: CYP2C9 (Homo sapiens, UniProt P11712)
Sequence of CYP2C9 (P11712 whole entry): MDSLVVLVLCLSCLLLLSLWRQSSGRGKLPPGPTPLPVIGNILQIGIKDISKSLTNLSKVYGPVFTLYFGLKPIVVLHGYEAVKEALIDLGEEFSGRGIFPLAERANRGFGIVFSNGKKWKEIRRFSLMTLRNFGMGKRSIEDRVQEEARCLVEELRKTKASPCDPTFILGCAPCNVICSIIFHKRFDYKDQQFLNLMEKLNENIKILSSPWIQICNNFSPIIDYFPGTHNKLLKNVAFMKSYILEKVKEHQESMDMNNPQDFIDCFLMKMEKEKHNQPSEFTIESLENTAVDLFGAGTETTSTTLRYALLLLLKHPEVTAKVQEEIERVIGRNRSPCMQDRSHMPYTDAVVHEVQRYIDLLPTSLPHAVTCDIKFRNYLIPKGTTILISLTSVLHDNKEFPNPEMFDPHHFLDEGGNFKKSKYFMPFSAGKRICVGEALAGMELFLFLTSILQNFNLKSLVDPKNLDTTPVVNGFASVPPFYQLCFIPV

[8] = tested on: patients with RRMS; experiment: CLARITY and CLARITY EXT analysis; assay type: in vivo, human; conditions: after 2 short treatment courses, 3.5 mg/kg
[9] = molecular target: CYP2E1 (Homo sapiens, UniProt P05181)
Sequence of CYP2E1 (P05181 whole entry): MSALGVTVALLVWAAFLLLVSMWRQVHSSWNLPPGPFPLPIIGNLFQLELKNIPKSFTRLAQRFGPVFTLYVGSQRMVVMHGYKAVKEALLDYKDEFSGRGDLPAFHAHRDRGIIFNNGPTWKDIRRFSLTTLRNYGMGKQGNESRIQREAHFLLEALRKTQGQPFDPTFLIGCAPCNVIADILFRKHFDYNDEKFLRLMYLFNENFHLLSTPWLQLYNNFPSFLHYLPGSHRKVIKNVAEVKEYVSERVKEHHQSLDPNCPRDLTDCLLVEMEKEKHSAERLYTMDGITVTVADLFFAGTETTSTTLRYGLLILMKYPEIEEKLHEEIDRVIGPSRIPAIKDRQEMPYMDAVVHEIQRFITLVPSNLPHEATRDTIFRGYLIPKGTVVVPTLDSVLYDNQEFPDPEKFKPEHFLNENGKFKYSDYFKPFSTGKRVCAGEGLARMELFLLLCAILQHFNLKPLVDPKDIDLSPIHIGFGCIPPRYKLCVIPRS

[10] = tested on: male mice; experiment: Male mouse fertility study; assay type: in vivo
[11] = molecular target: P-gp (Homo sapiens, UniProt P08183); conditions: in vitro
Sequence of P-gp (P08183 whole entry): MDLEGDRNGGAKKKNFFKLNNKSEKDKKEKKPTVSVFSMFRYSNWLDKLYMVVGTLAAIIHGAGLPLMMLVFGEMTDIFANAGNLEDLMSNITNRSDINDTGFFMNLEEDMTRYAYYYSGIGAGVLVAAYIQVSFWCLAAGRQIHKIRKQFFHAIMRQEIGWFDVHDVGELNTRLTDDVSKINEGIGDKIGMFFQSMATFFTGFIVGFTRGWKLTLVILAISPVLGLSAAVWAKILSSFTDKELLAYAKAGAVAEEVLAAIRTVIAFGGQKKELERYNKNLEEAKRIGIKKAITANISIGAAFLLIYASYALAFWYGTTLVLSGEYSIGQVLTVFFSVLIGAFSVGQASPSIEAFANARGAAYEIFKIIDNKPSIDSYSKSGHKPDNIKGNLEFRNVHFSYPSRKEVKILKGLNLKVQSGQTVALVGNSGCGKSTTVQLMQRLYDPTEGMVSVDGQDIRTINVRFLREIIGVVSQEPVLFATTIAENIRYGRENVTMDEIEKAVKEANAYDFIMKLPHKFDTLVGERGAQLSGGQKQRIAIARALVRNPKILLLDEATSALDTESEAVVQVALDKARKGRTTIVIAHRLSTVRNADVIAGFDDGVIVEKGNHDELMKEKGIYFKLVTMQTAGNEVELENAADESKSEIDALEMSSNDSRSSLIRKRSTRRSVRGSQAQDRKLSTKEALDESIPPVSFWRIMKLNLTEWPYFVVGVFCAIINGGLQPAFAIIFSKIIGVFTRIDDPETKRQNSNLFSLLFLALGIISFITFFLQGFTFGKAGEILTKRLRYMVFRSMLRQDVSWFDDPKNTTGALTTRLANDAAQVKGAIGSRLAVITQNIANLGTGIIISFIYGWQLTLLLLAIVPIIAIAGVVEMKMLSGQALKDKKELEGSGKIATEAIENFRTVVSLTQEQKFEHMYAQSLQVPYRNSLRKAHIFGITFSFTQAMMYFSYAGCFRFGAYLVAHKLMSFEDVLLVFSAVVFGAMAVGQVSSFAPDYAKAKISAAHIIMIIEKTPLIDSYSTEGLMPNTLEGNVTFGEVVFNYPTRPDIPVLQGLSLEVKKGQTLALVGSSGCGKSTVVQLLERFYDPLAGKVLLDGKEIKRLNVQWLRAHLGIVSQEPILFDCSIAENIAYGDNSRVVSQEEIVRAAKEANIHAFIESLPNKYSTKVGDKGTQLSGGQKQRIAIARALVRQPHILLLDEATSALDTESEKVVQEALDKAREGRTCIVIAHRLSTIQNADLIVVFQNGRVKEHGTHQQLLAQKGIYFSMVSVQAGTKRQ

[12] = Drug interaction study with pantoprazole in MS patients; assay type: in vivo, human; conditions: 10 mg oral
[13] = tested on: rabbits; experiment: Reproduction toxicity; assay type: in vivo
[14] = tested on: mice; experiment: Long-term 22-month carcinogenicity study, subcutaneous; assay type: in vivo
[15] = molecular target: CYP3A4 (Homo sapiens, UniProt P08684)
Sequence of CYP3A4 (P08684 whole entry): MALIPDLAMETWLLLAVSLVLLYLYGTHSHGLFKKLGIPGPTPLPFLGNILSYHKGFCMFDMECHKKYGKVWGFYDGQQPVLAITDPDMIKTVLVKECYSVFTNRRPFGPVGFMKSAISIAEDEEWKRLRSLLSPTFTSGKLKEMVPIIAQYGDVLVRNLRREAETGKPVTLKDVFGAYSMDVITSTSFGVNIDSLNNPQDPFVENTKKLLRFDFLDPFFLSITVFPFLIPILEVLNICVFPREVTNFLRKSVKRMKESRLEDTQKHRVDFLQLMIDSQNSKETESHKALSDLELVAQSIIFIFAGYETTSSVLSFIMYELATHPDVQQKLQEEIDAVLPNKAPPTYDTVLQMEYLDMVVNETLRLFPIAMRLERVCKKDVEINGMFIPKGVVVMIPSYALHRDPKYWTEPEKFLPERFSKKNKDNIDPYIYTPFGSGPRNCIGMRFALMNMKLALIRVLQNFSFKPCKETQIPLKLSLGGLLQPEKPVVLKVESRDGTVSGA

[16] = tested on: CYP1A2
[17] = tested on: patients with SPMS; experiment: ONWARD study: Cladribine tablets 3.5 mg/kg added on to IFN-β, SPMS patients; assay type: in vivo, human
Excerpt: as §1, §2, §3

[18] = tested on: mammalian cells; experiment: Clastogenicity (chromosomal damage) in vitro; assay type: cell-based
Procedure: Cladribine is incorporated into DNA strands and inhibits DNA synthesis and repair. […] In vivo clastogenicity in mice was detected at 10 mg/kg, which was the lowest dose tested.

[19] = clinical; conditions: human
[20] = tested on: lymphocytes; experiment: Lymphocyte counts across clinical studies (pharmacodynamic effects)
[21] = tested on: mice; conditions: pregnant mice
[22] = RRMS, Cladribine tablets 3.5 mg/kg + IFN-β
[23] = SPMS, Cladribine tablets 3.5 mg/kg + IFN-β

Sequence of CYP2B6 (P20813 whole entry): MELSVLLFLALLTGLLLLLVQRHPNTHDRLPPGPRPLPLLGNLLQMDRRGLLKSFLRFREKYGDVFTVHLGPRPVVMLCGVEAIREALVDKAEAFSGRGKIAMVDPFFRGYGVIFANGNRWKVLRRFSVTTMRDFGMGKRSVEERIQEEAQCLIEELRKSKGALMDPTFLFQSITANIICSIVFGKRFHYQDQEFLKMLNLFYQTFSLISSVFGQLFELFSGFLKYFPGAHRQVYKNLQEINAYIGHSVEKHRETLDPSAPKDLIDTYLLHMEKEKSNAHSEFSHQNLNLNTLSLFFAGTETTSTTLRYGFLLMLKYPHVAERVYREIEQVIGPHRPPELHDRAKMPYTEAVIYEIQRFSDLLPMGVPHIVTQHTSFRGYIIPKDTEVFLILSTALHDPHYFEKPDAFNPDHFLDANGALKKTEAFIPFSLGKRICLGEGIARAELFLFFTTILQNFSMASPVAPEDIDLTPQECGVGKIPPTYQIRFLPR
Sequence of CYP1A2 (P05177 whole entry): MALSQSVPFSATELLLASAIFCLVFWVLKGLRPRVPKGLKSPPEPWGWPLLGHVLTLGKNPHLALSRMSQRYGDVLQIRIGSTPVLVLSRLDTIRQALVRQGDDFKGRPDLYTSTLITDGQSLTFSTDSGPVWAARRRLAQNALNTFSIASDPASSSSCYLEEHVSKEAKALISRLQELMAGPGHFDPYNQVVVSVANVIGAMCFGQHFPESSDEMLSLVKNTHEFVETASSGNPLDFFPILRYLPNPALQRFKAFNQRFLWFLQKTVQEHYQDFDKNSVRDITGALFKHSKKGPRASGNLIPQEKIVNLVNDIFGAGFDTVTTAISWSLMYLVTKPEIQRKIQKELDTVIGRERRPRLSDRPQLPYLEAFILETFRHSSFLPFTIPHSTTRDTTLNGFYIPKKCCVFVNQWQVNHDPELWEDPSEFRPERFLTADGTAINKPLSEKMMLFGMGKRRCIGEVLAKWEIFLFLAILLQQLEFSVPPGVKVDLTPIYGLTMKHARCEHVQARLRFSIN

In the case of Nc1nc(Cl)nc2c1ncn2[C@H]1C[C@H](O)[C@@H](CO)O1 [Cladribine, 2-chloro-2′deoxyadenosine], the “potential to act as inhibitor of CYP2B6” value [1] is reported as “does not show significant potential to act as inhibitor”, the CL renal [2] is reported as 370 mL/min and the half-life [2] is reported as about 24 h. The “potential to act as inhibitor of CYP1A2” value [3] was “does not show significant potential to act as inhibitor”, the Kp [4] was about 0.25 and the “accumulation of concentration in plasma after repeated dosing” value ([5]; in vivo) was “No significant accumulation”. The “reduction of Cmax with a high-fat meal (geometric mean)” value ([5]; in vivo, po) was 29%, the “Cmax and AUC increase with dose” value ([5]; oral dose range 3 to 20 mg) was “dose-proportional” and the “median Tmax” value ([5]; oral, fasted state) was 0.5 h. For the same compound, the “AUC with a high-fat meal” value ([5]; oral, high-fat meal) was “unchanged”, the “median Tmax” value ([5]; oral, with a high-fat meal) was 1.5 h and the “less likely to have a qualifying relapse than placebo” value ([6]; RRMS patients) was 50%. For the same compound, the “effect on disability progression” value ([6]; RRMS subgroup) was “could not be shown”, the annualized relapse rate ([6]; RRMS, Cladribine 3.5 mg/kg + IFN-β) was 0.15 and the “Mean number of T2 lesions per patient per scan, Mean (SD)” value [6, 22] was 0.58 (1.40). For the same compound, the “Most number of new T1 Gd+ lesions per patient per scan, Mean (SD)” value [6, 22] was 0.05 (0.31), the “potential to act as inhibitor of CYP2C9” value [7] was “does not show significant potential to act as inhibitor” and the “additional time off therapy for which efficacy in reducing relapses and slowing EDSS progression is maintained” value [8] was “at least 2 years”. The “potential to act as inhibitor of CYP2E1” value [9] was “does not show significant potential to act as inhibitor”, the testicular effects ([10]; male mice) was “reduced testicular weights and increased numbers of non-mottle sperm” and the “fertility of male mice” value ([10]; mouse, in vivo) was “did not affect the fertility of male mice”. For the same compound, the P-gp related efflux [11] was “only minimally P-gp related”, the “bioavailability when co-administered with pantoprazole” value [12] was “not altered” and the teratogenicity [13] was “teratogenic”. For the same compound, the “exposure multiple vs expected human AUC at maximum daily dose of 20 mg” value ([14]; 10 mg/kg in mice) was “approximately 16 fold”, the tumor incidence ([14]; 22-month, subcutaneous, highest dose 10 mg/kg, mice) was “No increased incidence of lymphoproliferative disorders or other tumor types” and the “potential to act as inhibitor of CYP3A4” value [15] was “does not show significant potential to act as inhibitor”. For the same compound, the “inductive effect on CYP1A2” value [16] was “no clinically meaningful inductive effect”, the “less likely to have a qualifying relapse than placebo” value ([17]; SPMS patients) was 89% and the “effect on disability progression” value ([17]; SPMS subgroup) was “could not be shown”. For the same compound, the “risk ratio of annualized relapse rate vs placebo” value ([17]; SPMS, 3.5 mg/kg add-on to interferon-beta) was 0.11, the annualized relapse rate ([17]; SPMS, Cladribine 3.5 mg/kg + IFN-β) was 0.03 and the “Mean number of T2 lesions per patient per scan, Mean (SD)” value [17, 23] was 0.29 (0.52). The “Most number of new T1 Gd+ lesions per patient per scan, Mean (SD)” value [17, 23] was 0.13 (0.55), the “clastogenic concentration relative to the expected clinical Cmax” value [18] was 17 fold and the Vd ([19]; in vivo) was 480 to 490 L. The bioavailability ([19]; in vivo, po, 10 mg) was about 40%, the Cmax ([19]; plasma, po, 10 mg) was 22 to 29 ng/mL and the “week from first dose at which median lymphocyte counts are back to the normal range” value ([20]; cumulative dose 3.5 mg/kg) was 84 week. For the same compound, the “effect on CD19+ B cells and CD16+/CD56+ natural killer cells” value ([20]; oral Cladribine) was “reduces CD19+ B cells and CD16+/CD56+ natural killer cells”, the “effect on circulating CD4+ and CD8+ T cells” value ([20]; oral Cladribine) was “rapid reductions in circulating CD4+ and CD8+ T ceils” and the embryo lethality [21] was “embryo lethal”.
